According to the BET-seq Pho4 binding data (Le et al. 2018):
The other results are listed elsewhere or left out. Values were computed here from the reads of four pooled replicates and scatter widely.

biological target: T1, Pho4 (S. cerevisiae) (UniProt P07270); test: relative binding free energy (BET-seq); higher = weaker binding; conditions: reference: library average
T1 sequence: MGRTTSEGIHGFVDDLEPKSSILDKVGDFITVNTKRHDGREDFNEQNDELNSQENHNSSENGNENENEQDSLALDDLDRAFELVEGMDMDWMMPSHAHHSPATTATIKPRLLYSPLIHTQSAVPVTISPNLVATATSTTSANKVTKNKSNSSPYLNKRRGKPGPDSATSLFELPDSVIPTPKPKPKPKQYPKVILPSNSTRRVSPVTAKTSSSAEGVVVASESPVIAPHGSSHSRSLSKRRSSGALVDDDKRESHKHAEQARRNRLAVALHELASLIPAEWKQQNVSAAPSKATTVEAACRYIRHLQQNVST

Sequence	relative binding free energy [kcal/mol]
GGAGTCACGTGCCTGT	0.11
TTTGACACGTGTTCAA	0.03
TTATGCACGTGTAGTT	0.02
TCCTACACGTGTTGGT	0.15
TGAGTCACGTGGGTCC	0
CGGTACACGTGTTATT	-0.01
GTAGACACGTGTTTGG	-0.08
GTTGACACGTGGGGGC	-0.13
GAGGTCACGTGATATT	0.28
CATGTCACGTGGGTGG	0
GTTCGCACGTGCGGTG	-0.04
TAGGACACGTGTGGCA	0.01
TTGTGCACGTGCGGCA	-0.17
TTAAGCACGTGGCGCG	-0.25
CGGCGCACGTGATGGG	0.13
GAGGTCACGTGGCGAT	0.09
TGGTGCACGTGAGCGG	0.1
GGATCCACGTGGTGTA	0.02
GTACGCACGTGCGTGT	-0.04
GAGGTCACGTGTCGGT	0.15
TTGGTCACGTGGGAGA	0.05
TTAGTCACGTGAAGGT	0.31
CTTTGCACGTGATGAG	0.24

Sequence	relative binding free energy [kcal/mol]
TACGACACGTGTAAGG	0.22
GGTGTCACGTGTTAAT	0.21
TGTTTCACGTGAAACG	0.21
AGAACCACGTGGGGTT	-0.2
TTTTGCACGTGAGTTT	0.24
TGGGTCACGTGCTTAA	-0.07
GGTGTCACGTGTGCCG	0.09
CTAGACACGTGTATGT	-0.03
GTTAACACGTGGGCAT	-0.14
ATGGTCACGTGCGGTG	-0.06
CATAGCACGTGGGGCA	-0.09
GTAAACACGTGAGGTG	0.25
GTAATCACGTGTAGTT	0.26
AAATGCACGTGAGGTG	0.17
CTTTGCACGTGGTTGA	0
AGAGGCACGTGGAATG	-0.11
TTATGCACGTGTTTTA	-0.02
TAAGGCACGTGACGGA	0.02
AATTGCACGTGTGGGC	0.05
TGGGACACGTGGGGGT	-0.09
GTCGACACGTGTAGGG	0
TGGTTCACGTGACGGA	0.31
ATTGACACGTGTGCTA	0.05

Sequence	relative binding free energy [kcal/mol]
GGCTGCACGTGTAGTT	0.03
TTTGTCACGTGGGGCG	0.01
CTGTGCACGTGATGAG	0
GTGTCCACGTGTGATT	0.13
TATACCACGTGAGGGG	0.01
AGGTGCACGTGAATTT	0.34
AGTCGCACGTGAGTGT	0.21
TTATACACGTGGAAGT	0.15
TTAGACACGTGGCCGG	-0.1
GTTTGCACGTGAGGTA	0.28
GATGGCACGTGAGGGT	0.31
TGGTACACGTGCTGGT	0.1
TGGTGCACGTGTTTCG	0.04
AGTGACACGTGTAGTG	0.22
AGTTGCACGTGCAATT	0.05
GATGTCACGTGATGCG	0.26
GATGGCACGTGCGGAT	-0.09
GTAGCCACGTGTGTTT	0.02
CTAGTCACGTGGGGAA	-0.02
CTTGGCACGTGCGGAG	-0.08
CTGCGCACGTGGTAGG	-0.2
GGGGCCACGTGGCCTG	-0.09
ACATTCACGTGGGAGG	0.13

Sequence	relative binding free energy [kcal/mol]
TTATTCACGTGCGGCG	0.14
ATTGACACGTGGTACT	-0.02
GTAGACACGTGTGGGA	0
AAGTTCACGTGGTGCT	0.24
AAAGGCACGTGTGTAG	-0.03
TAAGACACGTGTAGGT	-0.02
GAGTGCACGTGTGTCG	-0.01
ATGGTCACGTGGTGAC	0.01
ACGATCACGTGTGGGG	0.22
GTGGACACGTGCTGGC	0.04
AACTCCACGTGTGGGG	0.12
TGGTCCACGTGTTAGA	0.05
GGGGACACGTGATCGG	0.19
AAGGTCACGTGGAGTT	0.2
CGTTTCACGTGTAGTA	0.27
GAGTGCACGTGAGGGT	0.3
GATGTCACGTGGTGTA	0.12
TGGTACACGTGTCGGC	0.14
TGGTACACGTGAATGG	0.11
GATGTCACGTGCTGCT	0.14
AAGTGCACGTGGGCTG	-0.14
AGTGTCACGTGCGAGA	0.02
GGGGCCACGTGTGGGG	0.05

Sequence	relative binding free energy [kcal/mol]
TTGAGCACGTGTGGCT	-0.12
CTAGGCACGTGGGGGC	-0.2
TGGGGCACGTGATTAA	-0.06
GCAGTCACGTGTGGGA	0.12
GGTGGCACGTGAATAG	0.12
GTTGGCACGTGAGGTC	0.29
CGTTGCACGTGGTTGC	-0.15
ACTGGCACGTGGAAGG	-0.05
CGGTGCACGTGATTGC	0.05
CTTTTCACGTGTTGGA	0.18
TAAGACACGTGGGGCG	-0.2
GTCGGCACGTGGTGGT	-0.09
TGGACCACGTGTGGTA	0.03
CTGTTCACGTGCGGGA	0.25
ATGTGCACGTGTGCTG	-0.04
CGAGTCACGTGTCGTG	0.17
GATGACACGTGTGGTT	0.24
ATGAGCACGTGTGTCT	-0.06
AATGCCACGTGTGTGT	-0.04
GGGGGCACGTGCAGGG	-0.15
TCGTACACGTGTGGGA	0.09
AATCTCACGTGTATGT	0.13
TGTGCCACGTGCAGTG	-0.07
